# According to PMC4336329 (PLoS ONE, 2015):
# Hit rate of the full screen: of about 310,000 compounds, about 2,200 (0.71%) showed an effect of 50% or more. Effects have a minus sign here. Some of the results follow.
# Target: human ether-à-go-go-related gene (hERG) potassium channel (human, UniProt Q12809)
# Assay: primary screen, population patch clamp on CHO cells stably expressing hERG
# Chain of human ether-à-go-go-related gene (hERG) potassium channel (Q12809 whole entry, looked up): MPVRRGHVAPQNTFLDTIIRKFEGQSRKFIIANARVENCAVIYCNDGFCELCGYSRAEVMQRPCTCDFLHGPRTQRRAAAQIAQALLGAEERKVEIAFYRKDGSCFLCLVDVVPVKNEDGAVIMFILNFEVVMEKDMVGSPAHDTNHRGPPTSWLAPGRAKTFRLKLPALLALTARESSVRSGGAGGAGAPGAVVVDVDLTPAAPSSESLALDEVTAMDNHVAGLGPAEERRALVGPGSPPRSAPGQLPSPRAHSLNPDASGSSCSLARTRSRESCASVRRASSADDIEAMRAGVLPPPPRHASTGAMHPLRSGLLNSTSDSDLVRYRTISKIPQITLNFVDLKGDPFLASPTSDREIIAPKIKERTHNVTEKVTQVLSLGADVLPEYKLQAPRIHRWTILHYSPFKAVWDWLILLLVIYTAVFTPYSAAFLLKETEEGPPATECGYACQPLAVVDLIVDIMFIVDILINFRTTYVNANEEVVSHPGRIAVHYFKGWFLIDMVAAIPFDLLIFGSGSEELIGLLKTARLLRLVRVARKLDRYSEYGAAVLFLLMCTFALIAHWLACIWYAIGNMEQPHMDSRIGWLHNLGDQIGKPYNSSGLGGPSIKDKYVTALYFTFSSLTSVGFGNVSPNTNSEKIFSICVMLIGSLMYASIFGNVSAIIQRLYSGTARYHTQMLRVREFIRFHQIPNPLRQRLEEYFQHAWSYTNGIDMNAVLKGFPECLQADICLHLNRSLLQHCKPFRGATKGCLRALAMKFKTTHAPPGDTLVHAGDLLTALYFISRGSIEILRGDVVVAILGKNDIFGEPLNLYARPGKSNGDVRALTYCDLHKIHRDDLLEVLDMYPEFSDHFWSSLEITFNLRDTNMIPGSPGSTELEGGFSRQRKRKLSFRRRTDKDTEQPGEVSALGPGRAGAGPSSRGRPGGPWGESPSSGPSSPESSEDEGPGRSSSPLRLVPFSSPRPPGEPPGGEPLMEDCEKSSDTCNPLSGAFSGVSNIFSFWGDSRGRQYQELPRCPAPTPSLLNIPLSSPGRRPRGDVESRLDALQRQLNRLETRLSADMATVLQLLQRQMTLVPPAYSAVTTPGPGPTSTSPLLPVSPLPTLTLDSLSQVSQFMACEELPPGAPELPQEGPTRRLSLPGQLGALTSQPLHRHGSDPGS
row,Structure (SMILES),"hERG current change (%, negative = inhibition) at 1uM"
1,N#Cc1c(N2CCCC(O)C2)nc(N)c2c(N)nc3c(c12)CC(=O)N3C12CC3CC(CC(C3)C1)C2 (stereo not drawn),8.76%
2,CCn1c(SCC(=O)OCc2ccccc2)nnc1-c1ccco1,14.4%
3,CC(OC(=O)c1cccc(S(=O)(=O)N2CCN(C)CC2)c1)C(=O)Nc1ccc(C(N)=O)cc1 (stereo not drawn),5.38%
4,CCOC(=O)C1[C@H]2C(=O)N(CCCOC)C[C@]23C=C[C@H]1O3 (stereo partly drawn),8.46%
5,Cc1ccc(S(=O)(=O)NCCS(=O)(=O)N2CCN(c3ccccc3)CC2)cc1,9.29%
6,O=c1c(OC2OC(CO)C(O)C(O)C2OC2OC(CO)C(O)C(O)C2O)c(-c2ccc(O)cc2)oc2cc(O)cc(O)c12 (stereo not drawn),10.8%
7,CCN(CC(=O)NCc1ccc(F)cc1)CC(=O)Nc1cc(S(=O)(=O)N(C)C)ccc1C,-45.8%
8,O=[N+]([O-])c1cccc(S(=O)(=O)Nc2ccc(S(=O)(=O)N3CCCC3)cc2)c1,12.5%
9,NC(=O)c1ccc(NC(=O)Cn2c(=O)n(-c3ccccc3)c(=O)c3oc4ccccc4c32)cc1,16.8%
10,NC(=O)c1nn(-c2ccc(Cl)cc2Cl)c(=O)cc1O,10.9%
11,Nc1nc(SCCO)[nH]c(=O)c1NC(=O)c1ccccc1F,15.9%
12,CCN(CC)S(=O)(=O)c1ccc(C(=O)NCC(c2cccs2)N2CCOCC2)cc1.Cl (stereo not drawn),0.735%
13,CC(C)CC(=O)Nc1ccc(C(=O)CN2CCN(c3ccc(O)cc3)CC2)cc1,8.56%
14,O=S(=O)(Nc1ccc(Br)cc1)c1cccc2nonc12,-0.755%
15,CC(=O)N1CCCc2cc(S(=O)(=O)N3CCCC(C(=O)N4CCN(c5cc(C)ccc5C)CC4)C3)ccc21 (stereo not drawn),8.99%
16,O=C(NCCN1CCOCC1)C(=O)c1c[nH]c2ccccc12,14.4%
17,O=C1c2cccc3c([N+](=O)[O-])c(O)cc(c23)C(=O)N1Nc1ccccc1,12.6%
18,Cc1cc(C)nc(Sc2ncnc(N)c2[N+](=O)[O-])n1,12.6%
19,Brc1cccc(OCCOCCn2ccnc2)c1.O=C(O)C(=O)O,-1.77%
20,Cc1ccc(-c2nn3c(C)nnc3c3ccccc23)cc1S(=O)(=O)NC(C)(C)CO,8.73%
21,CCOc1ccc(NC(=O)C(C)N2C(=O)c3ccccc3C2=O)cc1 (stereo not drawn),6.49%

row,Structure (SMILES),"hERG current change (%, negative = inhibition) at 1uM"
1,Cc1[nH]c2ccccc2c1CN1CCc2ccccc2C1,1.76%
2,C/C(=N\Nc1ccc(Cl)c(C(=O)O)c1)c1cccc([N+](=O)[O-])c1,6.86%
3,CN(C)C(=O)CSc1nnc(NC(=O)CCc2ccccc2)s1,5.15%
4,Cc1cc(C)cc(N(C(=O)c2csnn2)C(C(=O)NC2CCCCC2)c2ccccn2)c1 (stereo not drawn),11.5%
5,CCC(Sc1nc(N)c(NC(=O)c2ccc(OC)c(OC)c2)c(=O)[nH]1)C(=O)OC (stereo not drawn),-5.41%
6,OC(C#CCN1CCCCCC1)(c1ccccc1)c1cccnc1 (stereo not drawn),10.8%
7,Cc1ccc(S(=O)(=O)Nc2ncccn2)cc1,18.8%
8,O=C(O)Cn1c(SCCOc2ccccc2F)nc2ccccc21,8.37%
9,COC(=O)c1ccc(S(=O)(=O)N2CCC(C(N)=O)CC2)n1C,8.39%
10,COc1ccc(Cl)cc1NC(=O)CN1C(=O)CSC1=O,11.4%
11,COc1cccc(N(C(=O)C2CSC(=O)C2)C(C(=O)NC(C)(C)C)c2ccncc2)c1 (stereo not drawn),32.9%
12,O=C(CSCc1ccc(F)cc1)N1CCN(c2ccc(F)cc2)CC1,-19.8%
13,Cc1[nH]c2ccccc2c1C(=O)C(=O)N1CCCc2ccccc21,1.95%
14,CC(=O)N1CCc2cc(C(=O)CN3CCCCC3)ccc21,15.1%
15,O=C(NC1CCCC1)C(c1ccsc1)N(C(=O)Cc1cccs1)c1cccc(F)c1 (stereo not drawn),19.3%
16,CCCOc1ccc(/C=N/NC(=O)C(C)Sc2ccccn2)cc1OCC (stereo not drawn),10.9%
17,COc1ccc(CNC(=O)CN(C)S(=O)(=O)c2ccc3c(c2)c(=O)n(C)c(=O)n3C)cc1,-0.424%
18,O=C1NC(=S)N/C1=C/c1ccc2ccccc2c1,13.2%
19,CCCc1nc(N)nc2c1C(=O)CC(C)(C)C2,4.14%
20,COc1cc(C=O)cc(OC)c1OS(=O)(=O)c1ccc(NC(C)=O)cc1,7.66%
21,Cn1c(=O)n(C)c2cc(C(=O)Nc3ccc4c(c3)OCO4)ccc21,14.8%
